Experimental data: the RNAGym collection of RNA variant scans (doi:10.7554/elife.90254)
The source gives no read counts; variants with many changes may rest on few reads.

B1: LINE1-mini (parent)
chain: GGCAGAGCUCAACACAGCGUGGCAAAGUGGCUGUGGCUAGACUGCC

Variants of: B1
Assay: self-cleavage, relative activity (ratio to wild type); higher = more cleavage; in vitro, sequencing; the parent is a self-cleaving ribozyme

| Variant | self-cleavage |
| --- | --- |
| G2U G5U A14C G44C | 0.02 |
| G2U G7A U38A | 0.1 |
| G2U C18A G35C G36A | 0.12 |
| G2U C13A C18G | 0.06 |
| G2U C13U A41C | 0.01 |
| G2U G30C C31G | 0.04 |
| G2U G7C A16C G17A G30A C37A | 0.09 |
| G2U U9C C15U C18U G30C | 0.01 |
| G2U G5U G21U G35U | 0.09 |
| G2U G5U C15A | 0.02 |
| C3A A4C C15U G21U C42U | 0.11 |
| G2U C3U G21A G29U | 0.57 |
| G2U C10U G29A | 0.05 |
| G2U G22A A39G G40C | 0.04 |
| G2U C10A U34A G36U | 0.02 |
| G2U C8G G30U A39G | 0.04 |
| G2U C13U A16C A25C G33A | 0.04 |
| G2U C23U A41U C42G G44C | 0.03 |
| G2U C15U A16U G44U | 0.02 |
| G2U C8U G21U G40C | 0.11 |
| G2U G5U U38A | 0.02 |

| Variant | self-cleavage |
| --- | --- |
| G2U G21U A41G U43C | 0 |
| G2U C10U A24G C37U C42G | 0.02 |
| G2U C10U G36C | 0.01 |
| G2U G5U C23G U43A | 0 |
| G2U G27A C37G | 0.01 |
| G2U G29U G35C G40U G44C | 0.01 |
| G2U G7A C37G | 0.05 |
| G2U C10U A16G | 0.02 |
| G2U G35C C42U C45A | 0.03 |
| G2U G7C U20G U32C U38A C45G | 0.02 |
| G2U C42A C45A | 0.06 |
| G2U C13U A24C A39C | 0.02 |
| G2U C23A G29C C46G | 0.03 |
| G2U C23A A25U G30C | 0.14 |
| G2U G29A C31A C37A | 0.01 |
| G2U G5C A25C G27U U43C | 0.01 |
| G2U G19U C23U A39C | 0.01 |
| G2U G19C G29A | 0.03 |
| G2U G17U A24U G44U | 0.05 |
| G2U C3U C10G C37G C46A | 0.01 |
| G2U C15U G30U U32C | 0.04 |

| Variant | self-cleavage |
| --- | --- |
| G2U G17A A39C | 0.02 |
| G2U U20G G27C U43C G44C C45U | 0.01 |
| G2U C18G A24U G29U | 0.01 |
| G2U G19A G30C G40A | 0.02 |
| G2U G29C C46A | 0.1 |
| G2U G7C A14C G35U | 0.03 |
| C3A A4C C46A | 0.34 |
| G2U C8U A26U U34C A39G | 0.03 |
| G2U G17A G22U A24U G27C U34A | 0.09 |
| G2U G36C U38G G44C | 0.05 |
| G2U U9A U43A | 0.03 |
| G2U C8A U9G G19U A25U U28C | 0.08 |
| G2U C10A C46G | 0 |
| G2U C13A U20G C46A | 0.02 |
| G2U G22U G35U | 0.06 |
| G2U C3U G19U G22A | 0.18 |
| G2U C10A C23U A25C | 0.05 |
| G2U G30A U38C | 0.05 |
| G2U C3U C45A C46G | 0.08 |
| G2U C10A C31G G36U | 0.01 |
| G2U G7U C8A | 0.05 |

| Variant | self-cleavage |
| --- | --- |
| G2U C8A A12U C13G U34A | 0.05 |
| G2U G35A G40U G44A | 0.05 |
| G2U C8U A25U G35C G44A | 0.07 |
| G2U U28A C42U | 0 |
| G2U C3U C15U G30A G36A | 0.1 |
| G2U C23A U34C A39C | 0 |
| G2U C10G G21U | 0.03 |
| G2U G27U C31A U32C | 0.05 |
| G2U U38C C46G | 0.03 |
| G2U G5U A11C | 0 |
| G2U G5U A6C C42A | 0.02 |
| G2U G5C G19A A25U G40U | 0.02 |
| G2U U9G C46U | 0.02 |
| G2U U34A G35U | 0.01 |
| G2U G17U G19A C42G | 0.04 |
| C3A A4C A16C C37U | 0.92 |
| G2U C8A C15U G30A U32C | 0.05 |
| G2U C10A G29U C46A | 0.03 |
| G2U C15A G19A | 0.02 |
| G2U C8U G17A | 0.07 |
| G2U G19U C23G | 0.06 |
